In the supplement of paper PMC11383711:
Some of the results follow. Binding of human antibodies (heavy:light variable regions, tested as scFv in one mRNA-display pool) to influenza hemagglutinin, with or without the stem antibody CR9114 bound first. Score = (mean enrichment − median) / interquartile range of that screen; higher = more enriched, 0 = typical non-binder. Active = above the paper's cut-off per screen: stems 28; unblocked H1 Solomon Islands 5, H1 Michigan 3, H3 5, H5 19, H7 2.85, both B 5; blocked 9, 7, H5 10, H7 10, B Phuket 10, B Lee 11.5. Scores are scaled within each screen and are no affinities; replicates correlate at about 0.6 to 0.9, and antibodies rare in the pool are noisier.

B1: antibody 2E04 (protein)
chain 1: QVQLQESGPRLVKPSETLSLTCAVSGYSISNYYWGWIRQPPGKGLEWIGSLNHRGNTFYSPSLKSRVTISVDTSKNHFSLKVNSVTAADTAVYYCARGNYYDVDLKLFYFDYWGQGTLVTVSS
chain 2: DIQMTQSPSSLSASVGDRVTITCRASQNIKTYLNWYQQKPGKAPNLLIYGASSLESGVPSRFSGSGSGTEFTLTISSLQPEDFATYYCQQSYKMFTFGGGTKVEIK
B2: AG12-C05 (protein)
chain 1: VQLQESGPGLVKPLQTLSLTCTVSGVSIANNGFYWTWVRQRPGKGLEWIGNIFYSGDTSYSPSVERRLTISLDTSKNQFSLRLASVTAADTAVYYCTVESWYSSGPGENHFDSWGQGTLVTVSS
chain 2: DIQMTQSPSSLSASVGDTVTITCRASETIKFYLNWYQQKPGKAPKLLMSPASSFHRGAPSRFSASGSGTDFSLTISSLQPEDFATYYCQQSYITPRTFGQGTKVEIK
B3: AG13-3D02 (protein)
chain 1: VQLVESGGGLVKPGGSLRLSCAASGFTFSDYYMTWIRQAPGKGLEWVSYIDSWSTYTDYPDSVKGRFTVSRDNAKNSLYLQMNSLRAEDTAVYFCARDRGDCSRTTCSFDSWGQGTLVTVSS
chain 2: DIQMTQSPSSLSASVGDSVNITCRASQNIRRSLHWYQQKSGRAPQLLIFSVSALHGGVPTRFSGSGSGTEFTLTISSLQPEDFATYFCQQSYSRPLTFGPGTKVDIK
B4: W85-3B07 (protein)
chain 1: QVQLQESGPGLVKPSETLSLTCSVSGDSITSYYCSWIRQSPGKGLEWIGYIYYTGSTNYNPSLKSRVTISVDTSKNQFSLKLSSVTAADTAVYYCARHGQLYDVWSGYYRGPEHRYFDLWGRGTLVTVSS
chain 2: DIVMTQSPDSLAVSLGERATINCKSSQSVLYSSNNRNFLAWYQQKPGQPPKLLISWASARESGVPDRFSGSGSGTDFTLTISNLQAEDVALYYCQQYYTTPYTFGQGTKLEIK
B5: 008-10-1C03 (protein)
chain 1: EVQLVESGGGLVQPGGSLRLSCEASGFTFSSYWMSWVRQAPGKGLEWVAVMDQDGSDIYYVDSVKGRFTISRDNAKNSLSLQMNSLRAEDTAVYYCARDYWRSGEYWGQGALVTVSS
chain 2: EIVLTQSPATLSLSPGERATLSCRASQSVSSYLAWYQQRPGQAPRLLIHDASNRATGIPARFSGSGSGTDFTLTISSLEPEDFAVYYCQQGNKWPRTFGQGTKVEIK
B6: 014-10-3A02 (protein)
chain 1: VQLVQSGAEVKKPGASVKVSCKASGYTFTGYYIQWVRQAPGQGLEWMGWINPNSGGTNYAQSFQGRVTMTRDTSVNTAYMELNRLKSDDTAIYYCARDDYPDYEVYWGQGTLVTVSS
chain 2: EIVLTQSPATLSLSPGERATLSCRASQSVSSYLDWYQQKPGQAPRLLIYDASTRATGIPSKFSGGGSGTDFTLTISSLEPEDFAVYYCQQRGNWLWTFGQGTKVEIK
B7: W85-3C08 (protein)
chain 1: ASLVEFWGEGLVPAGGPLRLSCAASGFSVSSNSMSWVRQAPGRGLEWVSLIYTGGSTVYADSVRGRFTISRDNFKNTLLLQMNSLRTEDTAVYYCARAERDGDYEGNWGQGTLVTVSA
chain 2: EIVLTQSPATLSLSPGERATLSCRASQSVSSYLAWYQQKPGQAPRLLIYGASNRATGIPARFSGSGSGTDFTLTISSLEPEDFALYYCQQRSNWITFGQGTRLEIK
B8: 240-14-IgA-2F02 (protein)
chain 1: EVQLLESGGGLVQPGGSLRLSCAASGFTFSTYAMSWVRQAPGKGLEWVSTISGSGGSTYDAESVKGRFTISRDNSKNTLYLQMNSLRAEDTAVYYCAKEGGDFWSGYYANWFDPWGQGTLVTVSS
chain 2: QSALTQPRSVSGSPGQSVTISCTGTRSDVGGYNYVSWYQQHPGKAPKVIIYDVKKRPSGVPDRFSGSKSGNTASLTISGLQAEDEADYYCSAFAGSHTLFGGGTKVTVL
B9: SFV019-4E01 (protein)
chain 1: QVQLQESGPGLLKPSETLSLTCTVSGGSISKYYWTWIRQPPGKTLEWIGYVHYAFYIGATNYNPSLKSRVTISVDTAKNQVSLRLTSVTAADTAVYYCVRADGDSEGFGYHYGMDVWGRGTTVTVSS
chain 2: DIQMTQSPSSLSASVGDRVTITCRASQGIGNDLAWYQQKLGTAPKRLIYDASSLQSGVPSRFSGSGSGTEFTLTISSLQPEDFATYYCLQHNDYPLTFGQGTKVEIK
B10: K77-2E07 (protein)
chain 1: QVQLVQSGDEVKKPGASMKVSCRSSGFTLTTFYMHWVRQAPGQGLEWVGLIHPNGITTTYAQNFLGRVAMTRDTSTNTVYMDLRSLRSDDTAVYFCARGRAEETWTQRWPPYSLDVWGQGTRVTVSS
chain 2: EIVLTQSPGTLSLSPGERATLSCRASRSISSSYLAWYQQRPGQAPRLLIYGASSRATGIPDRFSGSGSGTDFTLTISTLEPEDFAVYYCQHYGSSPPVLFGPGTKVDIK

How the values were obtained:
[1] = target: H1 HA stem construct (mini-HA #4900); test: mRNA display binding score; higher = more enriched on the antigen; details: antigen blocked with: nothing
Description: (§1)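 A pool of natively paired antibodies, displayed as scFv on mRNA, was selected once on antigen-coated beads and sequenced before and after; two replicates.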

[2] = target: H3 HA stem construct (H3ssF); test: as above; details: antigen blocked with: nothing
Description: as §1

Binder	mRNA display binding score [1]	mRNA display binding score [2]
B1	inactive: -0.235	inactive: -0.306
B2	inactive: 0.0276	inactive: -0.0874
B3	inactive: -0.231	inactive: 0.0703
B4	inactive: 0.452	inactive: 0.193
B5	inactive: -0.405	inactive: -0.711
B6	inactive: -0.129	inactive: -0.3
B7	inactive: -0.09	inactive: 0.0922
B8	inactive: -0.397	active: 345
B9	inactive: 0.169	inactive: -0.24
B10	inactive: -0.0765	inactive: -0.242
